These are yes or no findings as the source states them, for the method shown. For some assays here: Binding seen in cells or lysates may run through a third protein. Some results given as binding are weak or reduced against the parent protein; the word gives no strength. For some assays here: Tags and fused reporters may be left off the sequences shown. Blank lines part the entries; values can stand above or below the binder they belong to.
Experiments:
[1] = biological target: human DNA polymerase alpha large subunit, two-hybrid fusion (human) (UniProt P09884); assay: condition: <5 (percentage of the cdc6/TTC4 interaction); two-hybrid; quantitative liquid beta-galactosidase assays; values as a percentage of the cdc6/TTC4 interaction
[2] = biological target: human HSP70 protein 8 (HSPA8), two-hybrid fusion in pEG202 (human) (UniProt P11142); assay: two-hybrid; pairs of bait (pEG202) and activation (pJG4.5) vectors co-transfected into S. cerevisiae; growth on selective and non-selective media after 1 or 2 days
[3] = biological target: T1, human CDC6, two-hybrid fusion in pEG202 (human) (UniProt Q99741); assay: as above
T1 sequence: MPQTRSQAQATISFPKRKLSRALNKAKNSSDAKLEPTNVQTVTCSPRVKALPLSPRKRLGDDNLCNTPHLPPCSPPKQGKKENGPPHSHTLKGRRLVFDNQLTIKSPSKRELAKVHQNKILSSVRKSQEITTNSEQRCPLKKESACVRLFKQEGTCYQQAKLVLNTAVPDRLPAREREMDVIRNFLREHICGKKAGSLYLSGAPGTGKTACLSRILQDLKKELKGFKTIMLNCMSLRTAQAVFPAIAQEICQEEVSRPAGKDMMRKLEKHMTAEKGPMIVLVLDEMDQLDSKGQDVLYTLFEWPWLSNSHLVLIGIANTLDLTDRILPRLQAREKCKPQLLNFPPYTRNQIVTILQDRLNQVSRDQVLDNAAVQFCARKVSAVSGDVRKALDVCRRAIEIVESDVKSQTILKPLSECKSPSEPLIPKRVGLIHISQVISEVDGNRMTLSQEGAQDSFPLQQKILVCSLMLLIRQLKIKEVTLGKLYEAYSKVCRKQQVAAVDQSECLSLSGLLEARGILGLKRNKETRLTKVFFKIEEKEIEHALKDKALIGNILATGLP

Sequences of proteins named here, by UniProt entry; tags and fusion partners are left off.
UniProt P09884: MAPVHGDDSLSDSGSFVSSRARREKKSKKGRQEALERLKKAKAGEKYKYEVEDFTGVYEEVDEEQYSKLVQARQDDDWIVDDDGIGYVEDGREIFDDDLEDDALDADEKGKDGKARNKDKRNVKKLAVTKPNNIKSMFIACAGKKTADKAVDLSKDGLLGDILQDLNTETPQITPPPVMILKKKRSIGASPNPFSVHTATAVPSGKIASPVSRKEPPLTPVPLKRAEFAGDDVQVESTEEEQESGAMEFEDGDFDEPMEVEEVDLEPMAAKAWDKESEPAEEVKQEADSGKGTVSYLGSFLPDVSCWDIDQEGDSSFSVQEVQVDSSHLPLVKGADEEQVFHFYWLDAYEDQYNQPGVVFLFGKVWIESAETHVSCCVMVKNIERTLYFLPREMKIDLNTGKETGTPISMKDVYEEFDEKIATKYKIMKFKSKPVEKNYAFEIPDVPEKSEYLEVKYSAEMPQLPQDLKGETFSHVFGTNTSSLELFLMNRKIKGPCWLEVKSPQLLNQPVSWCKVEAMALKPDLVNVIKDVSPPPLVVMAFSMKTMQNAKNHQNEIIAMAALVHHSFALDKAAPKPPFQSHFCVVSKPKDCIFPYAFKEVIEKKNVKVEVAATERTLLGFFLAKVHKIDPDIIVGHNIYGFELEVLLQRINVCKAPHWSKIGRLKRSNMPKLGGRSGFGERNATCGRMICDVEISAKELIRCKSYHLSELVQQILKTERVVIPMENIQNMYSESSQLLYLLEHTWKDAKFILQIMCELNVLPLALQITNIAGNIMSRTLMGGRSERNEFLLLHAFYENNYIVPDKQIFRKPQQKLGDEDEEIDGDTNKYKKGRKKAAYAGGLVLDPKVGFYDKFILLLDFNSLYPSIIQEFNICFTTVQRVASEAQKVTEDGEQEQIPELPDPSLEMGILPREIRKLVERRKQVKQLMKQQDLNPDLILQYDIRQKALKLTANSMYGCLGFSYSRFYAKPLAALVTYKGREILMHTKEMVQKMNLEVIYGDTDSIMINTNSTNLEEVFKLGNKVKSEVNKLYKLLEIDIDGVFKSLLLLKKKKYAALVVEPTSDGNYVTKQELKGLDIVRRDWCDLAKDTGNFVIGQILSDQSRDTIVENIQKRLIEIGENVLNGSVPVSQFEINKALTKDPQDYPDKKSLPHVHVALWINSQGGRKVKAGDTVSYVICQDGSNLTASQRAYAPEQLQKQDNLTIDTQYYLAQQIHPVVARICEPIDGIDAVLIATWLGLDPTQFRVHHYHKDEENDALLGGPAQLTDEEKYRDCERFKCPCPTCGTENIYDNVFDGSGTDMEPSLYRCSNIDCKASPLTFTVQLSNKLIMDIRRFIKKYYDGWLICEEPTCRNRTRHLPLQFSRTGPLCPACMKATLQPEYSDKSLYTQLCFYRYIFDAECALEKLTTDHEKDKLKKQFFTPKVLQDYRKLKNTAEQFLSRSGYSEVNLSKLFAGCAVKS
UniProt P11142: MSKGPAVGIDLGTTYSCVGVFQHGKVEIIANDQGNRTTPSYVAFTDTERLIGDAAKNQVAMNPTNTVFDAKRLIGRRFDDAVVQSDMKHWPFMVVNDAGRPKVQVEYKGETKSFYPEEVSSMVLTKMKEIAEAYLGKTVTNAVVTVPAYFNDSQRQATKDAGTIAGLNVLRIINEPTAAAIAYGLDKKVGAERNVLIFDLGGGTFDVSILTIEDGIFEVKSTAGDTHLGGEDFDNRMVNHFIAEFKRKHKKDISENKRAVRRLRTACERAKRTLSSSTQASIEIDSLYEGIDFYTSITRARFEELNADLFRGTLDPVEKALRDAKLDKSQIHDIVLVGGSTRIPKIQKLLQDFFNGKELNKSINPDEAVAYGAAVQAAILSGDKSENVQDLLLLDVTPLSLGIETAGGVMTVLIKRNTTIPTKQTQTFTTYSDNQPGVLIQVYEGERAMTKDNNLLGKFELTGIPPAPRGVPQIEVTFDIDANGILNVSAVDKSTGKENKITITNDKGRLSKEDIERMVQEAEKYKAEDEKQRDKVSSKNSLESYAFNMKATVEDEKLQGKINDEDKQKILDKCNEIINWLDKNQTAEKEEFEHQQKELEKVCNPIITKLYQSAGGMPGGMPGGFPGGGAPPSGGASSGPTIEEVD
UniProt P08238: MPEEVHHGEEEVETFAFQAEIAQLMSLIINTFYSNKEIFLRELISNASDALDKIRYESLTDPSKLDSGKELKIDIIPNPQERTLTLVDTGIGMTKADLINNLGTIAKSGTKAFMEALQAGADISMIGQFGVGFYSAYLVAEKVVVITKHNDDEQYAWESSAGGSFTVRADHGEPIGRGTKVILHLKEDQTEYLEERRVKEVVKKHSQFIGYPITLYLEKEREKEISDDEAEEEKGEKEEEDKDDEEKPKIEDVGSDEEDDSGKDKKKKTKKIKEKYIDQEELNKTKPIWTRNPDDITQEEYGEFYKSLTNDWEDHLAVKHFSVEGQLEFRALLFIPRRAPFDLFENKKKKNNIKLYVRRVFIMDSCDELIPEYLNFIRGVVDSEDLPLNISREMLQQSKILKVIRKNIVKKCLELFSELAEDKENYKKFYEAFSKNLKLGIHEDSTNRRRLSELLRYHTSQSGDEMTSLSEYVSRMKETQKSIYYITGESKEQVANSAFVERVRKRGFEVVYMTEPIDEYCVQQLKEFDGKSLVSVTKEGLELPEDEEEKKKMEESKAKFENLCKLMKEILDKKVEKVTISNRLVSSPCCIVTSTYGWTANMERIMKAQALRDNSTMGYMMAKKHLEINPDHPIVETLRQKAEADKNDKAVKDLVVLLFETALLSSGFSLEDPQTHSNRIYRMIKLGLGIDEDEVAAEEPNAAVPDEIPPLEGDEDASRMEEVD

[4] = biological target: human HSP90 protein 1 beta (HSPCB), two-hybrid fusion in pEG202 (human) (UniProt P08238); assay: as above
[5] = biological target: human DNA polymerase alpha large subunit, two-hybrid fusion (human) (UniProt P09884); assay: as above
[6] = biological target: T1, human CDC6, two-hybrid fusion in pEG202 (human); assay: condition: <5 (percentage of the cdc6/TTC4 interaction); two-hybrid; quantitative liquid beta-galactosidase assays; values as a percentage of the cdc6/TTC4 interaction
[7] = biological target: T2, TTC4, endogenous in Hela cells (human (endogenous in Hela)) (UniProt O95801); assay: co-IP; anti-TTC4 serum coupled to protein A sepharose, Hela cell extract (PBS, 1% triton X100); pellet blotted for HSP90, HSP70, CDC6; pre immune serum as control
T2 sequence: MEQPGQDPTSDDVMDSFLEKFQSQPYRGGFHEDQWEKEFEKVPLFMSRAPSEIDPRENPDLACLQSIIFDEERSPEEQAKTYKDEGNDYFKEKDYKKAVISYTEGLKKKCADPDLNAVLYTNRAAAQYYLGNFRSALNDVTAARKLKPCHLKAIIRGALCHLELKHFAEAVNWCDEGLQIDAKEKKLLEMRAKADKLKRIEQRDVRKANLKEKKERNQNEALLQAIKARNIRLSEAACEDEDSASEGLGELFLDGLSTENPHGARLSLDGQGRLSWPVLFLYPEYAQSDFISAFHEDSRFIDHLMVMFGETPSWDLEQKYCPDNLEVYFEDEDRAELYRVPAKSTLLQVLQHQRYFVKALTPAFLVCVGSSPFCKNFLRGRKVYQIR

- binding [1]: no binding
- binding [2]: binds
- binding [3]: binds
- binding [4]: binds
- binding [5]: no binding
B1: human TTC4, two-hybrid fusion in pJG4.5 (protein, UniProt O95801 1-387)
chain: MEQPGQDPTSDDVMDSFLEKFQSQPYRGGFHEDQWEKEFEKVPLFMSRAPSEIDPRENPDLACLQSIIFDEERSPEEQAKTYKDEGNDYFKEKDYKKAVISYTEGLKKKCADPDLNAVLYTNRAAAQYYLGNFRSALNDVTAARKLKPCHLKAIIRGALCHLELKHFAEAVNWCDEGLQIDAKEKKLLEMRAKADKLKRIEQRDVRKANLKEKKERNQNEALLQAIKARNIRLSEAACEDEDSASEGLGELFLDGLSTENPHGARLSLDGQGRLSWPVLFLYPEYAQSDFISAFHEDSRFIDHLMVMFGETPSWDLEQKYCPDNLEVYFEDEDRAELYRVPAKSTLLQVLQHQRYFVKALTPAFLVCVGSSPFCKNFLRGRKVYQIR

- binding [6]: no binding
B2: TTC4-651-TA (217NK), two-hybrid fusion in pJG4.5 (protein, UniProt O95801 1-387)
chain: MEQPGQDPTSDDVMDSFLEKFQSQPYRGGFHEDQWEKEFEKVPLFMSRAPSEIDPRENPDLACLQSIIFDEERSPEEQAKTYKDEGNDYFKEKDYKKAVISYTEGLKKKCADPDLNAVLYTNRAAAQYYLGNFRSALNDVTAARKLKPCHLKAIIRGALCHLELKHFAEAVNWCDEGLQIDAKEKKLLEMRAKADKLKRIEQRDVRKANLKEKKERKQNEALLQAIKARNIRLSEAACEDEDSASEGLGELFLDGLSTENPHGARLSLDGQGRLSWPVLFLYPEYAQSDFISAFHEDSRFIDHLMVMFGETPSWDLEQKYCPDNLEVYFEDEDRAELYRVPAKSTLLQVLQHQRYFVKALTPAFLVCVGSSPFCKNFLRGRKVYQIR

- binding [6]: no binding
B3: TTC4-230AC (77EA), two-hybrid fusion in pJG4.5 (protein, UniProt O95801 1-387)
chain: MEQPGQDPTSDDVMDSFLEKFQSQPYRGGFHEDQWEKEFEKVPLFMSRAPSEIDPRENPDLACLQSIIFDEERSPEAQAKTYKDEGNDYFKEKDYKKAVISYTEGLKKKCADPDLNAVLYTNRAAAQYYLGNFRSALNDVTAARKLKPCHLKAIIRGALCHLELKHFAEAVNWCDEGLQIDAKEKKLLEMRAKADKLKRIEQRDVRKANLKEKKERNQNEALLQAIKARNIRLSEAACEDEDSASEGLGELFLDGLSTENPHGARLSLDGQGRLSWPVLFLYPEYAQSDFISAFHEDSRFIDHLMVMFGETPSWDLEQKYCPDNLEVYFEDEDRAELYRVPAKSTLLQVLQHQRYFVKALTPAFLVCVGSSPFCKNFLRGRKVYQIR

- binding [7]: binds
B4: CDC6, endogenous in Hela cells (protein, UniProt Q99741 1-560)
chain: MPQTRSQAQATISFPKRKLSRALNKAKNSSDAKLEPTNVQTVTCSPRVKALPLSPRKRLGDDNLCNTPHLPPCSPPKQGKKENGPPHSHTLKGRRLVFDNQLTIKSPSKRELAKVHQNKILSSVRKSQEITTNSEQRCPLKKESACVRLFKQEGTCYQQAKLVLNTAVPDRLPAREREMDVIRNFLREHICGKKAGSLYLSGAPGTGKTACLSRILQDLKKELKGFKTIMLNCMSLRTAQAVFPAIAQEICQEEVSRPAGKDMMRKLEKHMTAEKGPMIVLVLDEMDQLDSKGQDVLYTLFEWPWLSNSHLVLIGIANTLDLTDRILPRLQAREKCKPQLLNFPPYTRNQIVTILQDRLNQVSRDQVLDNAAVQFCARKVSAVSGDVRKALDVCRRAIEIVESDVKSQTILKPLSECKSPSEPLIPKRVGLIHISQVISEVDGNRMTLSQEGAQDSFPLQQKILVCSLMLLIRQLKIKEVTLGKLYEAYSKVCRKQQVAAVDQSECLSLSGLLEARGILGLKRNKETRLTKVFFKIEEKEIEHALKDKALIGNILATGLP

Source: PMC2253824
